Data taken from PMC5700166.
This is a selection; strong and weak results do not stand in their true shares. The list includes weakly bound sequences.

Assays:
Assay in all cases: protein-binding microarray (PBM)
Settings in all cases: PBM: ~300 nM protein, 6 mM HEPES pH 7.8, 80 mM KCl, 0.5 mM EDTA, 0.5 mM EGTA, 6% glycerol, 35 ng/ul poly-dIdC, 1% milk, 1 h, room temperature; Ap Aiptasia and Nv Nematostella (sea anemones) / Co Capsaspora / Aq Amphimedon (sponge) / Dm Drosophila / Hu human; RHD is the Rel homology domain; high values mean tight binding; most listed sequences are background and not binding sites; double strand, one strand shown
GST-Ap-NF-kB RHD = target: T1, GST-Ap-NF-kB RHD (UniProt A0A913YAJ5)
T1 sequence: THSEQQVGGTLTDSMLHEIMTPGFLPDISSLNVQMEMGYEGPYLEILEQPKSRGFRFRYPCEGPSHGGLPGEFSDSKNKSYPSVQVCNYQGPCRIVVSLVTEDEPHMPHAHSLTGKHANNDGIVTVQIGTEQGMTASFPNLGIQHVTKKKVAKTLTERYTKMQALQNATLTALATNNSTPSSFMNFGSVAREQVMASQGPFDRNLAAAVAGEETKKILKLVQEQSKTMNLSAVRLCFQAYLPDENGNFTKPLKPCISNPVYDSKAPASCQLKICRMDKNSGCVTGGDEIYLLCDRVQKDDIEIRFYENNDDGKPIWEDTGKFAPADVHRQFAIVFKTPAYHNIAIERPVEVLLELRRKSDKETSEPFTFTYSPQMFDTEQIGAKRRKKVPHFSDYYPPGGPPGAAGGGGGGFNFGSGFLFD

GST-Co-NF-kB = target: T2, GST-Co-NF-kB (UniProt F1ARL5)
T2 sequence: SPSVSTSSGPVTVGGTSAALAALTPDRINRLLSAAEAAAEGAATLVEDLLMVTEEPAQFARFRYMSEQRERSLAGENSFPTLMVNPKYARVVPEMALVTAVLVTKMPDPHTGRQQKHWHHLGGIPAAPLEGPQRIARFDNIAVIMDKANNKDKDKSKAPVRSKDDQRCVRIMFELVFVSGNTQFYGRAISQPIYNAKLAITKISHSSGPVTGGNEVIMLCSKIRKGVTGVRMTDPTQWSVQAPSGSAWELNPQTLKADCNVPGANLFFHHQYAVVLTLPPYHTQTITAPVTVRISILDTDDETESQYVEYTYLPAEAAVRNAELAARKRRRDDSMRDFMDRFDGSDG

[1] = target: T3, GST-Nv-NF-kB (Cys allele) (UniProt E5G601)
T3 sequence: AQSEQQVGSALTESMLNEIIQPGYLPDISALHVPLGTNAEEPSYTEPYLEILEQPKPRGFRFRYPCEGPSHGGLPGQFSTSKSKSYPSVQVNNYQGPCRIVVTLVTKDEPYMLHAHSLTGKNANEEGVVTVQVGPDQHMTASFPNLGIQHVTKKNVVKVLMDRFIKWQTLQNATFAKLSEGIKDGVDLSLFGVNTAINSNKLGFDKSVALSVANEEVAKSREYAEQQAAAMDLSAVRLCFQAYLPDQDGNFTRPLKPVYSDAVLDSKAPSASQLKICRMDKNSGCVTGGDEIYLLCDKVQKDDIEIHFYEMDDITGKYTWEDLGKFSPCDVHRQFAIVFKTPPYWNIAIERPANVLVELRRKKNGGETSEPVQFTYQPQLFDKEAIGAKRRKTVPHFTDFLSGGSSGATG

GST-Dm-Relish = target: T4, GST-Dm-Relish (UniProt Q94527)
T4 sequence: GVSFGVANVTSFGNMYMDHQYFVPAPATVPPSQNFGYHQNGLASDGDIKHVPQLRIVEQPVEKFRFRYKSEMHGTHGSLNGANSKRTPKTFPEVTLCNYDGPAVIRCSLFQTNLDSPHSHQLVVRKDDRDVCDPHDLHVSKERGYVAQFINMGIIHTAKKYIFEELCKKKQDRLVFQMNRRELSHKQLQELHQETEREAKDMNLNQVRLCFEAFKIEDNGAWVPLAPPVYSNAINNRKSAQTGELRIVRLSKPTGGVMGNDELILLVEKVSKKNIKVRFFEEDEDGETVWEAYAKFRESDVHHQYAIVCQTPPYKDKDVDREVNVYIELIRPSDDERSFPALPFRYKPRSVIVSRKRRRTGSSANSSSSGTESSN

Sequence | binding signal (GST-Ap-NF-kB RHD) [z-score] | binding signal (GST-Co-NF-kB) [z-score] | binding signal [1] [z-score] | binding signal (GST-Dm-Relish) [z-score]
CCGATTAACATCAGGGGATCACCTGATGTTAATCGGGTCTTGATTCGCTTGACGCTGCTG | 7.26 | 2.95 |  | 
CCGATTAACATCACCGTCCCCCCTGATGTTAATCGGGTCTTGATTCGCTTGACGCTGCTG | 4.94 | 5.1 |  | 
CCGATTAACATCAGGATAGCCCCTGATGTTAATCGGGTCTTGATTCGCTTGACGCTGCTG | 4 | 0.751 |  | 
CCGATTAACATCAAATTTCCGGGTGATGTTAATCGGGTCTTGATTCGCTTGACGCTGCTG | 0.808 |  | -0.125 | 0.816
CCGATTAACATCACGGGACTCCCTGATGTTAATCGGGTCTTGATTCGCTTGACGCTGCTG | 5.53 | 1.53 |  | 
CCGATTAACATCAGGGAGGTACCTGATGTTAATCGGGTCTTGATTCGCTTGACGCTGCTG | 3.34 | 0.824 |  | 
CCGATTAACATCAAGGGATTCCCTGATGTTAATCGGGTCTTGATTCGCTTGACGCTGCTG | 6.28 |  | 5.98 | 9.45
CCGATTAACATCAACGTGGGGCGTGATGTTAATCGGGTCTTGATTCGCTTGACGCTGCTG | 1.07 |  | 1.14 | 0.648
CCGATTAACATCAGGGCTGCCCCTGATGTTAATCGGGTCTTGATTCGCTTGACGCTGCTG | 4.09 |  | 3.62 | 4.09
CCGATTAACATCAGAAATACCCCTGATGTTAATCGGGTCTTGATTCGCTTGACGCTGCTG | 6.58 |  | 6.99 | 4.99
CCGATTAACATCAGATTTACCCCTGATGTTAATCGGGTCTTGATTCGCTTGACGCTGCTG | 3.07 | 6.39 |  | 
CCGATTAACATCAGGGGATTAAATGATGTTAATCGGGTCTTGATTCGCTTGACGCTGCTG | 4.91 |  | 6.29 | 5.28
CCGATTAACATCACCCCCTCCCCTGATGTTAATCGGGTCTTGATTCGCTTGACGCTGCTG | 3.75 | 4.75 |  | 
CCGATTAACATCAACCATGGGAATGATGTTAATCGGGTCTTGATTCGCTTGACGCTGCTG | 0.797 |  | 1.18 | 0.454
CCGATTAACATCAGAATTTCCCCTGATGTTAATCGGGTCTTGATTCGCTTGACGCTGCTG | 9.18 |  | 10.1 | 6.98
CCGATTAACATCAGGGGGTGTACTGATGTTAATCGGGTCTTGATTCGCTTGACGCTGCTG | 3.65 | 2.61 |  | 

Sequence | binding signal (GST-Ap-NF-kB RHD) [z-score] | binding signal (GST-Co-NF-kB) [z-score] | binding signal [1] [z-score] | binding signal (GST-Dm-Relish) [z-score]
CCGATTAACATCAAGGAAAAACCTGATGTTAATCGGGTCTTGATTCGCTTGACGCTGCTG | 0.231 | 0.551 |  | 
CCGATTAACATCAAATTCCCAGTTGATGTTAATCGGGTCTTGATTCGCTTGACGCTGCTG | 1.52 |  | 3.74 | 4.29
CCGATTAACATCAGGACTCTCCCTGATGTTAATCGGGTCTTGATTCGCTTGACGCTGCTG | 3.59 |  | 5.02 | 2.07
CCGATTAACATCAATTACCCCCCTGATGTTAATCGGGTCTTGATTCGCTTGACGCTGCTG | 5.96 |  | 4.69 | 4.49
CCGATTAACATCACGGAATTACCTGATGTTAATCGGGTCTTGATTCGCTTGACGCTGCTG | 1.02 | 0.161 |  | 
CCGATTAACATCAGGGATTTACATGATGTTAATCGGGTCTTGATTCGCTTGACGCTGCTG | 2.19 | 0.832 |  | 
CCGATTAACATCAGGAGGCCCCCTGATGTTAATCGGGTCTTGATTCGCTTGACGCTGCTG | 4.97 | 0.624 |  | 
CCGATTAACATCAAAATATTCCGTGATGTTAATCGGGTCTTGATTCGCTTGACGCTGCTG | 0.0711 |  | -0.357 | 0.839
CCGATTAACATCATTTCCCAAAATGATGTTAATCGGGTCTTGATTCGCTTGACGCTGCTG | -0.136 | 1.54 |  | 
CCGATTAACATCAAAATTCCCGATGATGTTAATCGGGTCTTGATTCGCTTGACGCTGCTG | 4.37 |  | 6.05 | 5.06
CCGATTAACATCAATATTTACCCTGATGTTAATCGGGTCTTGATTCGCTTGACGCTGCTG | 1.68 | 3.33 |  | 
CCGATTAACATCAGGGATCTACCTGATGTTAATCGGGTCTTGATTCGCTTGACGCTGCTG | 3.06 | -0.103 |  | 
CCGATTAACATCATTCCCGGGAATGATGTTAATCGGGTCTTGATTCGCTTGACGCTGCTG | 2.49 | 5.77 |  | 
CCGATTAACATCACAAATCCCCCTGATGTTAATCGGGTCTTGATTCGCTTGACGCTGCTG | 8.39 | 6.1 |  | 
CCGATTAACATCAAGAACCCCCGTGATGTTAATCGGGTCTTGATTCGCTTGACGCTGCTG | 6.68 | 3.25 |  | 
CCGATTAACATCAGGGGATTGGATGATGTTAATCGGGTCTTGATTCGCTTGACGCTGCTG | 4.77 | 2.06 |  | 
